Laboratory results taken from paper PMC6443190, “Regulation of anthocyanin accumulation via MYB75/HAT1/TPL-mediated transcriptional repression” (PLoS Genetics, 2019).
No constants are given. Whether binding was seen depends on the method and setting. For some assays here: Binding seen in cells or lysates may run through a third protein. Some results given as binding are weak or reduced against the parent protein; the word gives no strength. Tags and fused reporters may be left off the sequences shown. Blank lines part the entries; values can stand above or below the binder they belong to.

Tests used:
[1] = target: T1, EGL3 (pBridge-EGL3-HAT1, yeast three-hybrid) (Arabidopsis thaliana) (UniProt Q9CAD0); assay: two-hybrid; yeast three-hybrid: pGADT7-MYB75 with pBridge-TT8-HAT1 or pBridge-EGL3-HAT1; HAT1 under the Met-suppressible MET25 promoter; 200 uM down to 50 uM methionine
T1 sequence: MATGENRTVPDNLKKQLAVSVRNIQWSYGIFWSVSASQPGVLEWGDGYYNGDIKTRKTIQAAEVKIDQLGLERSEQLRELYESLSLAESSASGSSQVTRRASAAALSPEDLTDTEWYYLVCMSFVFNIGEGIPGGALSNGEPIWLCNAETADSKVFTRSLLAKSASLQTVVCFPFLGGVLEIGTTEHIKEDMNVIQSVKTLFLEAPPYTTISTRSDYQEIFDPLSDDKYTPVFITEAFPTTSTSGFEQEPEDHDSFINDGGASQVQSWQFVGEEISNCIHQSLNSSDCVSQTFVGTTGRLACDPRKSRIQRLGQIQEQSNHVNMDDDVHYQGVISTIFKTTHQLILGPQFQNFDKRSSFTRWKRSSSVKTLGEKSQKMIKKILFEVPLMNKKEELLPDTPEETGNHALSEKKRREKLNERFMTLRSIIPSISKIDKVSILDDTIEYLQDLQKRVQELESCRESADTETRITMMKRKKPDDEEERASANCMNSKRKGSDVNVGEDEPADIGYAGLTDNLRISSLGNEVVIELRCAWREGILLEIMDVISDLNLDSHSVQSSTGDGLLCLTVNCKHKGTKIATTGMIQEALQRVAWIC

[2] = target: T2, TT8 (pBridge-TT8-HAT1, yeast three-hybrid) (Arabidopsis thaliana) (UniProt Q9FT81); assay: as above
T2 sequence: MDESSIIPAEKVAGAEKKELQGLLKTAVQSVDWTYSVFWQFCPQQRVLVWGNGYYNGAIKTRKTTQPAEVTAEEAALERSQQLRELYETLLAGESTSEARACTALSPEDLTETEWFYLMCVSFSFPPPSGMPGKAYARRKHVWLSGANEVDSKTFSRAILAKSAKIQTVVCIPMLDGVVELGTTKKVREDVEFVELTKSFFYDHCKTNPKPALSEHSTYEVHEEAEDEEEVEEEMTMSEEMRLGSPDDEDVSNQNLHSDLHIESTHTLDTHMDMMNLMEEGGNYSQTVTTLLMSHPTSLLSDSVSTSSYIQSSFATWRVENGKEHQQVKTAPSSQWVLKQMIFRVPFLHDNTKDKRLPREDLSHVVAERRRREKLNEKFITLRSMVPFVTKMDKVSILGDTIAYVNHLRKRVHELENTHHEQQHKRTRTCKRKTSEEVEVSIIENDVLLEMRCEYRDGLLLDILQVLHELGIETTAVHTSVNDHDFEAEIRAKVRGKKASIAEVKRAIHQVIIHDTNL

[3] = target: T3, HA-MYB75 (Arabidopsis thaliana) (UniProt Q9FE25); assay: co-IP; extracts of transgenic Arabidopsis plants; anti-HA agarose, 3 h, 4 C; 150 mM NaCl, 50 mM Tris-HCl pH 7.5, 0.1% NP-40; anti-HA and anti-GFP blots
T3 sequence: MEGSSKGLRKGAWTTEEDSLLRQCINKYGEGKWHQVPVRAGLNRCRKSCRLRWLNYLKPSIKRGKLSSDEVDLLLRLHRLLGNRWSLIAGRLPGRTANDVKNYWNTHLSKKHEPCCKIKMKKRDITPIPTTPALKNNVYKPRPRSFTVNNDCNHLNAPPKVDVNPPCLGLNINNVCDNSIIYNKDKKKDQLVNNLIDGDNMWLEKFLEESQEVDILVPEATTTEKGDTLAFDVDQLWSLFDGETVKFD

[4] = target: T4, HA-TPL (Arabidopsis thaliana) (UniProt Q94AI7); assay: as above
T4 sequence: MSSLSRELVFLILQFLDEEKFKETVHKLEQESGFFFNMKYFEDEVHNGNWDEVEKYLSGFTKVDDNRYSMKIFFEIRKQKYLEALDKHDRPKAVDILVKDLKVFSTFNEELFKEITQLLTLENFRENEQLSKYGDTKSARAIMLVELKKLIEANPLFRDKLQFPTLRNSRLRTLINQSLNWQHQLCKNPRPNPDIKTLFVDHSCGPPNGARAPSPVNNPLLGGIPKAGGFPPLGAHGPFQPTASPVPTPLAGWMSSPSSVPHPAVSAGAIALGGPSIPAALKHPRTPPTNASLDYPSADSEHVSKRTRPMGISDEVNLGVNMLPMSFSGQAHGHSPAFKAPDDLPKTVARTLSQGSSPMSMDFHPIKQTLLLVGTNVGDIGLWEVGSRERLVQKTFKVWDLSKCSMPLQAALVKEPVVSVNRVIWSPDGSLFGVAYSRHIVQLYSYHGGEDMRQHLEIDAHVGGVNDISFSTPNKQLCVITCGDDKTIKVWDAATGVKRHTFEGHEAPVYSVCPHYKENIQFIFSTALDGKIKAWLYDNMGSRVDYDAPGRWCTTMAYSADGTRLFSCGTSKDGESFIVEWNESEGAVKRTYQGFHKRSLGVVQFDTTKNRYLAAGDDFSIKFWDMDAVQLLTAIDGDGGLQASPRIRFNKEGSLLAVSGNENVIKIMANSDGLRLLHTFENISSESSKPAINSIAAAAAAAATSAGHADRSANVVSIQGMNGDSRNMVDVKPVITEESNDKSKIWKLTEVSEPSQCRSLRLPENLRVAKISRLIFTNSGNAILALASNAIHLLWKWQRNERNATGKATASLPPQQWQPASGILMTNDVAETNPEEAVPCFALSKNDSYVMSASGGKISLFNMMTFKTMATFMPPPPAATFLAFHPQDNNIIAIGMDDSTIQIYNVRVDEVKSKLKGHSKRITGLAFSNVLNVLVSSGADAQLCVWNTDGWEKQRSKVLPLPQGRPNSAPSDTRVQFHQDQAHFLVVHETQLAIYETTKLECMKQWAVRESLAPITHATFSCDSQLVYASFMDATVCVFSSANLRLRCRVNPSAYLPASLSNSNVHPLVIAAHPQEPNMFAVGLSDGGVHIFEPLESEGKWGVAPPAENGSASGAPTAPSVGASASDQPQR

[5] = target: T5, EGL3-cYFP (Arabidopsis thaliana) (UniProt Q9CAD0); assay: split reporter; BiFC; nYFP and cYFP fusions coinfiltrated in N. benthamiana leaves
T5 sequence: T1 sequence

[6] = target: T6, TT8-cYFP (Arabidopsis thaliana) (UniProt Q9FT81); assay: as above
T6 sequence: T2 sequence

[7] = target: T7, TTG1-cYFP (Arabidopsis thaliana) (UniProt Q9XGN1); assay: as above
T7 sequence: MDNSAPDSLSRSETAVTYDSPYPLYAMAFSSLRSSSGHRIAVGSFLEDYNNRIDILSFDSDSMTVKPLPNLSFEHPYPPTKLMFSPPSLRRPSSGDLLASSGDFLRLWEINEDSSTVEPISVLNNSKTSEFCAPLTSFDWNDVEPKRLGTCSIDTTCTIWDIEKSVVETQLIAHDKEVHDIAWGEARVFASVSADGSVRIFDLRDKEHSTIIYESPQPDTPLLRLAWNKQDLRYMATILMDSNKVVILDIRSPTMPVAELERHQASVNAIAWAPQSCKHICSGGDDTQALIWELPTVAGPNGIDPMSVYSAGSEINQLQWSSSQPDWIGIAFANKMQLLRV

[8] = target: T8, AD-MYB75 (pGADT7-MYB75, yeast three-hybrid) (Arabidopsis thaliana) (UniProt Q9FE25); assay: two-hybrid; yeast three-hybrid: pGADT7-MYB75 with pBridge-TT8-HAT1 or pBridge-EGL3-HAT1; HAT1 under the Met-suppressible MET25 promoter; 200 uM down to 50 uM methionine
T8 sequence: T3 sequence

binding [1]: binds | binding [2]: binds
B1: AD-MYB75 (pGADT7-MYB75, yeast three-hybrid) (protein, UniProt Q9FE25 1-248)
chain: T3 sequence

binding [3]: binds | binding [4]: binds
B2: HAT1-GFP (protein, UniProt P46600 1-282)
chain: MMMGKEDLGLSLSLGFAQNHPLQLNLKPTSSPMSNLQMFPWNQTLVSSSDQQKQQFLRKIDVNSLPTTVDLEEETGVSSPNSTISSTVSGKRRSTEREGTSGGGCGDDLDITLDRSSSRGTSDEEEDYGGETCRKKLRLSKDQSAVLEDTFKEHNTLNPKQKLALAKKLGLTARQVEVWFQNRRARTKLKQTEVDCEYLKRCVEKLTEENRRLEKEAAELRALKLSPRLYGQMSPPTTLLMCPSCERVAGPSSSNHNQRSVSLSPWLQMAHGSTFDVMRPRS

binding [5]: no binding | binding [6]: no binding | binding [7]: no binding
B3: HAT1-nYFP (protein, UniProt P46600 1-282)
chain: B2 chain

binding [8]: binds
B4: HAT1 (expressed from the MET25 promoter of pBridge, yeast three-hybrid) (protein, UniProt P46600 1-282)
chain: B2 chain
